Data: paper PMC6664820, “Novel natural and synthetic inhibitors of solute carriers SGLT1 and SGLT2” (Pharmacology Research & Perspectives, 2019)
About 40 (2%) of roughly 1,900 compounds showed an effect of 50% or more. This is one part of the list.

Target: human SGLT1 (hSGLT1) (human, UniProt P13866)
Assay: primary screen, percent of control activity; higher = less effect of the substance
Set-up: single well
Settings: 50 µM
Description: Two days before the assay, CHO‐wild type and CHO‐hSGLT1 cells were seeded in maintenance medium at 25 000 cells/well in clear‐bottom black 96‐well cell culture plates. Before the assay, cells were washed 3 times with 150 μL/well D‐glucose free DMEM with 0.3% (w/v) BSA. Library compounds at 50 μmol/L (singlicate) prepared in D‐glucose free DMEM with 160 μmol/L 1‐NBD‐glucose and 0.3% (w/v) BSA and negative controls (triplicate) were added at 100 μL/well and placed in a humidified incubator at 37°C with 5% CO2 for 90 minutes. Next, cells were washed 3 times with DMEM with 0.3% (w/v) BSA (150 μL/well). Care was taken to remove all medium after the last wash. Finally, 1‐NBD‐glucose was extracted from the cells by adding 10 μL/well isopropanol and orbital shaking for 5 minutes at 600 rpm, followed by incubation in the dark for 30 minutes. Fluorescence was measured on a Tecan Infinite M200 Microplate Reader (Tecan, Männedorf, Switzerland) with excitation at 445 nm and emission at 525 nm. The amount of 1‐NBD‐glucose taken up by the CHO‐wild type or CHO‐hSGLT1 cells in the presence or absence of test compounds was interpolated from 1‐NBD‐glucose calibration standards. The background uptake by CHO‐wild type was subtracted from the uptake by CHO‐hSGLT1. Background corrected uptake with test compound was expressed as a percentage of corrected uptake without test compound.

Chain of human SGLT1 (hSGLT1) (P13866 whole entry, looked up): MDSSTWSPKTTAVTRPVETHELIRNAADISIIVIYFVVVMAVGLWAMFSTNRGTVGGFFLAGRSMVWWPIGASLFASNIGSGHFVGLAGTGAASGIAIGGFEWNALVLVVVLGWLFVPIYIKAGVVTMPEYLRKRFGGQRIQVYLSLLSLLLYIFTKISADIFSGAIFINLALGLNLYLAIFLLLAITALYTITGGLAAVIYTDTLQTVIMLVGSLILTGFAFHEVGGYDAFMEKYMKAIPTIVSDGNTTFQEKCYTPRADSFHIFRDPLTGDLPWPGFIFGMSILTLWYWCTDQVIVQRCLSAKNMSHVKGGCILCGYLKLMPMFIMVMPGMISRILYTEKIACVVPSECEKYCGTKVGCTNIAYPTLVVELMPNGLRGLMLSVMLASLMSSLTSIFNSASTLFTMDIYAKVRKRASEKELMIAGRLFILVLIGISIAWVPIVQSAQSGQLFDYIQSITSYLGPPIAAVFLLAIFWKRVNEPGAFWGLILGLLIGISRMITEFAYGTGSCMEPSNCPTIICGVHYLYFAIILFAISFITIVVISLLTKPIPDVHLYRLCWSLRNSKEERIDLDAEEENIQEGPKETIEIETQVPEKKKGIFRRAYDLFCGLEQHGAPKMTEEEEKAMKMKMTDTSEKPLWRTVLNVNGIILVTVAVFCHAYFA

Compound	NORMALIZED SGLT1 ACTIVITY (%)
COc1cc2c(cc1O)C[C@H]1c3c(cc(O)c(OC)c3-2)CCN1C	135
CN1[C@H]2C[C@H](OC(=O)[C@H](CO)c3ccccc3)C[C@@H]1[C@@H](O)C2	120
CO[C@H]1C[C@H](O[C@H]2CC[C@@]3(C)[C@H](CC[C@@H]4[C@@H]3CC[C@]3(C)[C@@H](C5=CC(=O)OC5)[C@@H](OC(C)=O)C[C@]43O)C2)O[C@@H](C)[C@@H]1O	70
CO[C@H]1[C@H](O)[C@H](O[C@H]2CC[C@@]3(C=O)[C@H](CC[C@@H]4[C@@H]3CC[C@]3(C)[C@@H](C5=CC(=O)OC5)CC[C@]43O)C2)O[C@@H](C)[C@@H]1O	111
C[C@@H]1O[C@@H](O[C@H]2CC[C@]3(C=O)[C@H]4CC[C@]5(C)[C@@H](C6=CC(=O)OC6)CC[C@]5(O)[C@@H]4CC[C@]3(O)C2)[C@H](O)[C@H](O)[C@H]1O	103
O=c1cccc2n1C[C@@H]1CNC[C@H]2C1	107
CN1C[C@H](CNC(=O)OCc2ccccc2)C[C@@H]2c3cccc4c3c(cn4C)C[C@H]21	93
CC(=O)O[C@H]1CC[C@@]2(C)[C@H](CC[C@@H]3[C@@H]2CC[C@]2(C)[C@@H](C4=CC(=O)OC4)[C@@H](OC(C)=O)C[C@]32O)C1	124
O=C1C[C@@H]2OCC=C3CN4CC[C@]56c7ccccc7N1[C@H]5[C@H]2[C@H]3C[C@H]46	72
C#C[C@]1(O)CC[C@H]2[C@@H]3CCC4=CC(=O)CC[C@]4(C)[C@H]3CC[C@@]21C	87
C[C@]12CC[C@H]3[C@@H](CC[C@]4(O)C[C@@H](O)CC[C@]34C=O)[C@@]1(O)CC[C@@H]2C1=CC(=O)OC1	87
CC[C@H]1[C@@H]2C[C@H]3[C@@H]4N(C)c5ccccc5[C@]45C[C@@H]([C@H]2[C@H]5O)N3[C@@H]1O	166
CC(C)C[C@H](CN)CC(=O)O	115
CO[C@H]1[C@H](O)[C@H](O[C@H]2CC[C@@]3(C)[C@H](CC[C@@H]4[C@@H]3CC[C@]3(C)[C@@H](C5=CC(=O)OC5)CC[C@]43O)C2)O[C@@H](C)[C@@H]1O	99
C[C@]12CC[C@H](Cl)C[C@@H]1CC[C@@H]1[C@@H]2CC[C@]2(C)C(=O)CC[C@@H]12	161
CCN1C[C@]2(COC)[C@H](O)C[C@H](OC)[C@@]34[C@@H]5C[C@@]6(O)[C@H](OC(=O)c7ccccc7)[C@@H]5[C@@](OC(C)=O)([C@@H]([C@H](OC)[C@H]23)[C@@H]14)[C@@H](O)[C@@H]6OC	80
CO[C@H]1C[C@H](O[C@H]2CC[C@]3(C=O)[C@H]4CC[C@]5(C)[C@@H](C6=CC(=O)OC6)CC[C@]5(O)[C@@H]4CC[C@]3(O)C2)O[C@H](C)[C@H]1O	105
C[C@@H]1O[C@@H](O[C@H]2C[C@@H](O)[C@]3(CO)[C@H]4[C@H](O)C[C@]5(C)[C@@H](C6=CC(=O)OC6)CC[C@]5(O)[C@@H]4CC[C@]3(O)C2)[C@H](O)[C@H](O)[C@H]1O	80
[N-]=[N+]=CC(=O)OC[C@H](N)C(=O)O	98
COc1cc2c(cc1OC)[C@@]13CCN4CC5=CCO[C@H]6CC(=O)N2[C@H]1[C@H]6[C@H]5C[C@H]43	120
CC(=O)O[C@H]1C[C@H](O[C@H]2[C@@H](O)C[C@H](O[C@H]3[C@@H](O)C[C@H](O[C@H]4CC[C@@]5(C)[C@H](CC[C@@H]6[C@@H]5C[C@@H](O)[C@]5(C)[C@@H](C7=CC(=O)OC7)CC[C@]65O)C4)O[C@@H]3C)O[C@@H]2C)O[C@H](C)[C@H]1O[C@@H]1O[C@H](CO)[C@@H](O)[C@H](O)[C@H]1O	110
